The source of these data is publication PMC7363780.

Results are given in words; binding and its absence hold for the method and conditions named. For part of these data: Binding seen in cells or lysates may run through a third protein. Some binding calls cover weakened binding; strength is not graded here. Tags and fused reporters may be left off the sequences shown.

For experiment [1], the target named is T1, GAL4-BD-CIP1 (S. cerevisiae) (UniProt Q02606).
T1 sequence: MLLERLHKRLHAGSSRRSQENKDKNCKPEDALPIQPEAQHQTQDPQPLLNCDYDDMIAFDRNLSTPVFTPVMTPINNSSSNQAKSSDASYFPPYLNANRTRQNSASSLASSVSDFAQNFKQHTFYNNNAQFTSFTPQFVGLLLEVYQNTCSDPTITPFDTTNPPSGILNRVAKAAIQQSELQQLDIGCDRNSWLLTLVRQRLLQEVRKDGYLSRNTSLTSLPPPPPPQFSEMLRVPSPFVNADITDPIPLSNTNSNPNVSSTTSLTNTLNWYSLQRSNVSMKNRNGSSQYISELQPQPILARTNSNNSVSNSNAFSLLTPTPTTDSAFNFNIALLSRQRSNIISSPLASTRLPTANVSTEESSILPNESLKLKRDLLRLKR
Kind of experiment: two-hybrid; Gal4-based Matchmaker System 3, strain AH109; growth on SD/-Ade/-His/-Leu/-Trp (4DO) against SD/-Leu/-Trp (2DO), 30°C.

Experiment [2] has as its target T2, GAL4-BD-CCR4 (S. cerevisiae) (UniProt P31384).
T2 sequence: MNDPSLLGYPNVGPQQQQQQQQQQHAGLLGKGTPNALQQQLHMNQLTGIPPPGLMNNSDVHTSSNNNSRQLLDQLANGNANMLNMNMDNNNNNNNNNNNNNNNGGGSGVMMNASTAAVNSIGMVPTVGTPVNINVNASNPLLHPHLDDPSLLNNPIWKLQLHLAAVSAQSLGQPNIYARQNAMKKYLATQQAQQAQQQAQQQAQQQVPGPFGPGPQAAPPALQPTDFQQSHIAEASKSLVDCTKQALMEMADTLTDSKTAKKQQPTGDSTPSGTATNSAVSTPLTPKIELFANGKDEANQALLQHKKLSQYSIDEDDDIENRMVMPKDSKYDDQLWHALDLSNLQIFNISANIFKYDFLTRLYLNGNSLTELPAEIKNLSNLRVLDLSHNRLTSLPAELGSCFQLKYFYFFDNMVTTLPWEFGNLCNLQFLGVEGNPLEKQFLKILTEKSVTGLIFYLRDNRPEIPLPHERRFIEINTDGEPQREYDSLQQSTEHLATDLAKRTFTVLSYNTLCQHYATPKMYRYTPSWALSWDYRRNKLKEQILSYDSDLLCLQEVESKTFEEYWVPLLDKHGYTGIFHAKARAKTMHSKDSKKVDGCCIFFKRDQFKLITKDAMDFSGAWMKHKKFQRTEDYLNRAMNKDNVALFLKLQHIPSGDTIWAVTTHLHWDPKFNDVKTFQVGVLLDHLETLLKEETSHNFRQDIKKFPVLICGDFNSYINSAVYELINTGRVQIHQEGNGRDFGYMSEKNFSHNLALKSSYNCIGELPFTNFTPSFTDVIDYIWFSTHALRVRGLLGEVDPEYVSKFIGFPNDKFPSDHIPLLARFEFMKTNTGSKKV
The experiment is described as above.

The target of experiment [3] is T3, Caf120-3HA (S. cerevisiae) (UniProt P53836).
T3 sequence: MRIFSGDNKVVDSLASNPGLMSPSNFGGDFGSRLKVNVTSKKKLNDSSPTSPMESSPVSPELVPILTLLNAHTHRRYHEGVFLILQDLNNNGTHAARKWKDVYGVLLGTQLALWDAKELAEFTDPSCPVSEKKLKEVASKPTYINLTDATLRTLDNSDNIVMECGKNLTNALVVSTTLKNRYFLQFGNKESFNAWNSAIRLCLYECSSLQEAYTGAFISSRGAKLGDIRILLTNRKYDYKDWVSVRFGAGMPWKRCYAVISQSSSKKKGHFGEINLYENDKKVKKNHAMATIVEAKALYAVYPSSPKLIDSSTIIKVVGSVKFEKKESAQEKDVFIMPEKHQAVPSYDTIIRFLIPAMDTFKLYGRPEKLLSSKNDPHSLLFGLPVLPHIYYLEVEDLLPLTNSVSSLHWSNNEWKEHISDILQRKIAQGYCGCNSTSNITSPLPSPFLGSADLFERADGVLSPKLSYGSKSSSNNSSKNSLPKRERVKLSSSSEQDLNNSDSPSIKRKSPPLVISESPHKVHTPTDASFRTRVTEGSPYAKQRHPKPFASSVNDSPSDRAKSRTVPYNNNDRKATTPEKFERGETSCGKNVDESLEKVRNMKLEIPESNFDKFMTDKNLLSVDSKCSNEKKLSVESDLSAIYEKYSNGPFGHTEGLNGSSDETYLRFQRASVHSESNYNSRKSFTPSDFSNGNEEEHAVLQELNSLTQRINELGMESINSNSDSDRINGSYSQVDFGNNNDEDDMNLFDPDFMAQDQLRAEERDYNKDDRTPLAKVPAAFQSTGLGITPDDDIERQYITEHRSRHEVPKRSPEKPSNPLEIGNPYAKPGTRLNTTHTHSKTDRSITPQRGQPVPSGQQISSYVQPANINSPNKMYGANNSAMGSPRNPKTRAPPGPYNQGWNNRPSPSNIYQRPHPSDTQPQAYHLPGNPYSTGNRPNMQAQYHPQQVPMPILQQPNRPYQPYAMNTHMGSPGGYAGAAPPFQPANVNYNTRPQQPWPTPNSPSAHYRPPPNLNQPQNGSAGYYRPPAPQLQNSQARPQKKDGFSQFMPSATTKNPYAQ
Kind of experiment: co-IP; anti-HA agarose immunopurification of the 3HA-tagged protein from extracts of exponentially growing yeast; lysis buffer 50 mM Tris-HCl pH 7.8, 150 mM NaCl, 1 mM EDTA, 10% glycerol, 1% Triton X-100; 1 h at 4°C; copurified Cip1-13myc detected with anti-myc.

Experiment [4] has as its target T4, Ccr4-3HA (S. cerevisiae) (UniProt P31384).
T4 sequence: T2 sequence
The description is as above.

B1: GAL4-AD-NOT5 (protein, UniProt Q12514 1-560)
chain: MSQRKLQQDIDKLLKKVKEGIEDFDDIYEKFQSTDPSNSSHREKLESDLKREIKKLQKHRDQIKTWLSKEDVKDKQSVLMTNRRLIENGMERFKSVEKLMKTKQFSKEALTNPDIIKDPKELKKRDQVLFIHDCLDELQKQLEQYEAQENEEQTERHEFHIANLENILKKLQNNEMDPEPVEEFQDDIKYYVENNDDPDFIEYDTIYEDMGCEIQPSSSNNEAPKEGNNQTSLSSIRSSKKQERSPKKKAPQRDVSISDRATTPIAPGVESASQSISSTPTPVSTDTPLHTVKDDSIKFDNSTLGTPTTHVSMKKKESENDSEQQLNFPPDRTDEIRKTIQHDVETNAAFQNPLFNDELKYWLDSKRYLMQPLQEMSPKMVSQLESSLLNCPDSLDADSPCLYTKPLSLPHPTSIFFPNEPIRFVYPYDVPLNLTNNENDTDNKFGKDSKAKSKKDDDIYSRTSLARIFMKFDLDTLFFIFYHYQGSYEQFLAARELFKNRNWLFNKVDRCWYYKEIEKLPPGMGKSEEESWRYFDYKKSWLARRCGNDFVYNEEDFEKL
On to B1, for which the binding entry in experiment [1] is listed as “no binding”.

B2: GAL4-AD-CDC36 (protein, UniProt P06100 1-191)
chain: MEKFGLKALVPLLKLEDKELSSTYDHSMTLGADLSSMLYSLGIPRDSQDHRVLDTFQSPWAETSRSEVEPRFFTPESFTNIPGVLQSTVTPPCFNSIQNDQQRVALFQDETLFFLFYKHPGTVIQELTYLELRKRNWRYHKTLKAWLTKDPMMEPIVSADGLSERGSYVFFDPQRWEKCQRDFLLFYNAIM
Take B2: the binding entry in experiment [1] is recorded as “no binding”.

B3: GAL4-AD-CIP1 (protein, UniProt Q02606 1-381)
chain: T1 sequence
In the case of B3, in experiment [2], the binding result is listed as “binds”.

B4: Cip1-13myc (protein, UniProt Q02606 1-381)
chain: T1 sequence
For the molecule B4, the binding result in experiment [3] and in experiment [4] was “binds” throughout.

B5: GAL4-AD-CAF120 (protein, UniProt P53836 1-1060)
chain: T3 sequence
With B5, the binding result in experiment [1] was “binds”.
